# Measured values from the supplement of paper PMC7826260.
# Some of the results follow. Viral Rep nickase domains cut single-stranded DNA in vitro (3 µM enzyme, 1 h, 37 °C); shown is the middle of each 90-letter strand. Uncut reads are compared with the no-enzyme pool on a log2 scale; strong cutting gives strongly negative numbers. There is no active / inactive call. Because reads are shares of a total, they shift together; uncut strands gain when others are lost, and binding without cutting may add a little.
# Tests used:
# Test in all cases: uncleaved DNA left, log2 of reads against the no-enzyme library (log2 ratio); higher = less cleavage (more negative = more Rep cleavage of the k-mer); sequences stand for … in CTCGTCCG…ACCGGAGA
# [1] = system: T1, Rep nickase domain of Muscovy duck circovirus
# T1 sequence (residues 1-111, tag not shown): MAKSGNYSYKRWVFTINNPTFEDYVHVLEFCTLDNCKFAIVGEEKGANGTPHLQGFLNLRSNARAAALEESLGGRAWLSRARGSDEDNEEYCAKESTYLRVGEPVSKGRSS
# Procedure: (§1)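 A pool of 90-nt single-stranded DNAs with seven random bases just before the constant AC of the nick site (name = the seven bases) was cut by 3 µM recombinant His6-SUMO-tagged Rep nickase domain (300 nM DNA, 50 mM HEPES pH 8.0, 50 mM NaCl, 1 mM MnCl2, 1 h, 37 °C, three replicates). Uncut DNA was amplified and sequenced.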
# [2] = system: T2, Rep nickase domain of banana bunchy top virus
# T2 sequence (residues 1-94, tag not shown): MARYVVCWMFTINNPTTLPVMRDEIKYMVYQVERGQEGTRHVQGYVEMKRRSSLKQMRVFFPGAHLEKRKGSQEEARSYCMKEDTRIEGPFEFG
# Procedure: as §1
# [3] = system: T3, Rep nickase domain of cabbage leaf curl virus
# T3 sequence (residues 1-116, tag not shown): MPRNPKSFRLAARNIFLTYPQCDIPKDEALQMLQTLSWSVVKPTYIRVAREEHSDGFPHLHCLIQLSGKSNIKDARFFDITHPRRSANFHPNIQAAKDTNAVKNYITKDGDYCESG
# Procedure: as §1
# [4] = system: T4, Rep nickase domain of chickpea chlorotic dwarf virus
# T4 sequence (residues 1-124, tag not shown): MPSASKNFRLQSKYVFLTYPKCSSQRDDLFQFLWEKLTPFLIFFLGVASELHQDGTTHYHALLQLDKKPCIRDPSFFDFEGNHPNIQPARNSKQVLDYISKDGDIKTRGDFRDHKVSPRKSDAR
# Procedure: as §1
# [5] = system: T5, Rep nickase domain of faba bean necrotic yellows virus
# T5 sequence (residues 1-98, tag not shown): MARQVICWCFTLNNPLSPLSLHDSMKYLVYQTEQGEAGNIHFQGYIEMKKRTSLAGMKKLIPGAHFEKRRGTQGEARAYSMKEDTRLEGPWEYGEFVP
# Procedure: as §1
# [6] = system: T6, Rep nickase domain of maize striate mosaic virus
# T6 sequence (residues 1-117, tag not shown): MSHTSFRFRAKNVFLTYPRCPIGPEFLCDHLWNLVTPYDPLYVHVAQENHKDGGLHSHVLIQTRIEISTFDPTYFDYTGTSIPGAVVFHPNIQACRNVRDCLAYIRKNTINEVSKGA
# Procedure: as §1
# [7] = system: T7, Rep nickase domain of porcine circovirus 2
# T7 sequence (residues 2-116, tag not shown): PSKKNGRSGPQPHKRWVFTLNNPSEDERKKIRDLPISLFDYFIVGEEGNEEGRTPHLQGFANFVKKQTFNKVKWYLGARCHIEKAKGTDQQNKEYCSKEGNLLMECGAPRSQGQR
# Procedure: as §1
# [8] = system: T8, Rep nickase domain of tomato golden mosaic virus
# T8 sequence (residues 1-124, tag not shown): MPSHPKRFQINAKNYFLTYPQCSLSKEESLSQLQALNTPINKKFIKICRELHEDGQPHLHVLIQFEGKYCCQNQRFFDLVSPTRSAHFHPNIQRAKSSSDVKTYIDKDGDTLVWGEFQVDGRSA
# Procedure: as §1
# [9] = system: T9, Rep nickase domain of tomato yellow leaf curl virus
# T9 sequence (residues 1-136, tag not shown): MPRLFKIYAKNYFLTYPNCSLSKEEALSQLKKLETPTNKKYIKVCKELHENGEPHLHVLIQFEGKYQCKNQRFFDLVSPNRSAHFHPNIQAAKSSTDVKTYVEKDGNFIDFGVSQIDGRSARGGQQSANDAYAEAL
# Procedure: as §1
# [10] = system: T10, Rep nickase domain of wheat dwarf virus
# T10 sequence (residues 1-137, tag not shown): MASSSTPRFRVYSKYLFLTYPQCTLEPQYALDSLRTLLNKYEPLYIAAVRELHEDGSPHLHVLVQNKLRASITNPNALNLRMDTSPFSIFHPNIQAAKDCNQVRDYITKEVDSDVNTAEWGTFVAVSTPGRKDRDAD
# Procedure: as §1
Sequence,uncleaved DNA left (log2) [1],uncleaved DNA left (log2) [2],uncleaved DNA left (log2) [3],uncleaved DNA left (log2) [4],uncleaved DNA left (log2) [5],uncleaved DNA left (log2) [6],uncleaved DNA left (log2) [7],uncleaved DNA left (log2) [8],uncleaved DNA left (log2) [9],uncleaved DNA left (log2) [10]
ATATTTT,-3.44,-0.386,-2.76,-3.21,-0.0242,-1.11,-3.88,-0.592,-0.155,-0.682
TCATATC,0.0294,0.131,0.0431,-0.309,0.0705,-0.629,0.0613,-0.19,0.14,0.143
CCCGCGC,0.128,-0.0402,-0.652,-0.451,-0.0456,-0.551,0.0857,-0.0521,-0.155,-0.034
GCCTAGC,-0.0227,-0.129,-0.42,-0.0784,-0.116,-0.869,-0.031,-0.231,-0.0793,-0.144
CATGTAA,-0.0386,0.00557,-0.208,-0.689,0.117,-0.974,0.0451,0.102,0.0467,0.0309
CCGACGG,-0.101,-0.141,0.128,0.711,-0.0485,1.5,0.132,0.0811,-0.154,-0.0671
CGAGACA,0.106,0.0635,0.525,0.65,0.101,1.33,0.0153,0.103,0.0787,0.134
GTGAGAT,0.214,0.177,0.712,1.72,0.236,2.14,0.448,0.223,0.272,0.34
GTCGACT,0.00386,-0.0934,0.0822,0.643,-0.0723,1.57,-0.0961,-0.14,-0.161,0.00685
AGTTAGT,-2.61,-0.887,-0.574,-0.857,-0.139,-1.02,-4.03,-0.121,0.0336,-0.195
ATCGCTA,0.0266,-0.0493,-0.305,-0.924,0.0622,-0.783,-0.132,0.0216,-0.0214,0.084
ACGTCAG,0.166,-0.0339,-0.534,-0.281,0.063,-1.08,0.202,0.109,-0.0054,0.0238
GTGGTGA,-0.0188,0.0864,0.332,0.894,0.0541,1.5,0.0454,0.0326,-0.0176,0.0485
CCGGGCG,-0.0904,-0.154,-0.733,-0.0789,-0.129,-0.488,0.079,-0.0703,-0.033,-0.134
TTCGAAT,0.013,-0.0197,-0.0269,-0.264,0.143,-0.247,-0.225,-0.0566,0.0346,-0.0183
TTTTTTA,-0.111,0.0431,0.114,-0.786,0.095,0.405,-0.206,0.115,0.0651,0.016
CATTATA,-1.25,-1.69,-0.203,-2.8,0.0583,-0.96,-1.61,0.136,0.101,0.0241
GGAGTCG,0.182,0.203,-0.31,0.0885,0.162,-0.248,0.35,0.18,0.126,0.109
GATTACC,0.00514,0.0144,0.139,-0.982,-0.0557,0.782,-0.654,0.0363,0.109,0.0758
GACGTGC,-0.0227,-0.0175,-0.0637,0.0905,-0.211,-0.449,-0.00853,-0.137,-0.0292,-0.127

Sequence,uncleaved DNA left (log2) [1],uncleaved DNA left (log2) [2],uncleaved DNA left (log2) [3],uncleaved DNA left (log2) [4],uncleaved DNA left (log2) [5],uncleaved DNA left (log2) [6],uncleaved DNA left (log2) [7],uncleaved DNA left (log2) [8],uncleaved DNA left (log2) [9],uncleaved DNA left (log2) [10]
CTACGGG,0.0832,-0.0775,-0.268,-0.522,0.0272,-0.718,0.107,-0.0225,-0.0173,-0.154
GGCATAC,0.0632,0.0518,0.668,1.51,0.0889,2.03,0.215,0.0558,0.0727,0.133
CCAGAGT,0.0668,-0.129,-0.287,-0.724,-0.0431,-0.851,0.0261,0.0536,-0.0279,-0.0697
TCGCCCT,-0.0686,-0.012,-0.11,-1.5,-0.121,-0.28,-0.26,-0.193,-0.0289,-0.139
GATCAGA,0.0925,0.017,0.166,0.475,0.0081,0.226,0.029,0.036,0.0633,0.145
TGCTCAC,-0.112,0.0448,0.183,0.342,-0.0948,0.687,0.00199,0.0374,0.0654,0.0653
CAAACTC,0.0365,-0.00562,-0.659,-1.72,0.106,-0.563,0.0388,-0.0836,0.0848,-0.226
CATCTTC,-0.0596,-0.167,-0.0989,-0.447,-0.136,-0.894,-0.152,-0.0215,-0.108,-0.0273
ACGGTGT,0.0783,-0.0387,-0.144,-0.473,0.0014,-0.459,0.115,0.047,0.0613,-0.0612
GGGTGGT,-0.177,-0.097,0.54,1.53,-0.165,2.04,-0.645,-0.0683,-0.143,-0.0667
CTATGCG,-0.141,-0.165,-0.696,0.582,0.0166,-0.286,-0.0418,-0.158,-0.367,-0.284
TTAGATT,-0.0587,-0.0951,-0.117,-2.2,-0.0825,-0.0715,-0.249,-0.209,-0.0521,-0.161
ATCCGGT,0.046,-0.00351,0.22,0.492,0.0416,0.502,0.0841,0.184,-0.0226,0.0927
ATAGCAC,0.129,0.0437,-0.111,-0.416,0.0409,-0.856,0.183,0.0564,0.173,0.0816
TCGCCAT,0.129,0.131,0.104,-0.0747,-0.0441,-0.116,-0.0866,-0.0354,-0.0199,0.129
TCGTCTG,0.0522,0.0384,0.0352,0.648,0.0422,1.33,0.0812,-0.0322,-0.0101,0.0704
GTATGGG,0.124,0.136,-0.116,-0.0616,0.0885,-0.301,0.142,0.117,0.119,0.0533
ACTGCAA,0.0686,-0.034,-0.203,-0.0956,-0.027,-0.817,-0.0232,0.0307,0.0895,0.0646
CGCACTA,-0.0296,-0.0774,-0.00351,0.028,-0.0537,0.627,-0.135,-0.133,-0.189,-0.00632
CGCGGAC,-0.0925,-0.109,0.512,1.35,-0.0302,1.56,0.0367,-0.108,0.0182,-0.0943

Sequence,uncleaved DNA left (log2) [1],uncleaved DNA left (log2) [2],uncleaved DNA left (log2) [3],uncleaved DNA left (log2) [4],uncleaved DNA left (log2) [5],uncleaved DNA left (log2) [6],uncleaved DNA left (log2) [7],uncleaved DNA left (log2) [8],uncleaved DNA left (log2) [9],uncleaved DNA left (log2) [10]
AGCCCCA,-0.0381,-0.0126,0.523,1.05,-0.142,1.62,-0.0842,-0.0601,-0.104,0.0493
TAGAGAT,0.202,0.106,0.428,1.07,0.0744,1.81,-2.03,0.158,0.0551,0.161
GTACCGG,-0.0448,-0.000527,0.529,1.44,0.0477,1.95,0.0955,0.0536,-0.0585,0.0482
ATTGAAT,-0.0446,-0.0834,0.155,0.239,0.0153,0.353,-0.515,0.0573,0.0442,0.0538
CAACGTC,-0.0322,-0.116,-0.204,-0.949,-0.0301,-0.895,-0.0866,-0.136,-0.166,-0.183
ATGCAGC,0.00652,0.049,-0.528,-0.561,-0.0412,-1.04,0.0758,0.0161,-0.0318,0.0807
TGCATGG,0.0731,-0.00778,0.169,0.302,-0.0351,-0.164,0.112,0.0173,-0.0263,-0.0665
CCGGCAA,-0.0945,-0.0541,0.165,0.178,-0.0624,-0.0736,-0.162,-0.0853,-0.048,-0.0556
TAAGGAC,0.0738,0.0809,0.382,1.22,0.00182,1.16,0.107,0.0811,0.068,0.149
CTTGTGG,0.0633,0.104,0.311,1.04,-0.026,0.652,0.101,0.0259,0.0956,0.0906
TAATTAC,0.038,0.0922,-3.58,-3.47,0.11,-2.15,-0.196,-2.78,-0.00842,-3.09
GCTAGAT,-0.00834,-0.00997,0.214,0.663,-0.0447,0.702,0.00741,0.0719,-0.0821,0.0548
GTTGTCG,-0.112,-0.09,-0.694,-0.302,-0.121,-0.809,0.0939,-0.125,-0.043,-0.107
GTCTATG,0.105,0.0627,0.289,0.9,0.032,1.75,0.187,0.145,0.0726,0.0917
CTAGATA,-0.0873,-0.027,-0.0627,-1.23,-0.0477,-0.293,0.0189,-0.0334,-0.0199,-0.0458
CACGTTA,-0.033,-0.276,-0.243,-2.28,-0.0418,-0.69,-0.275,-0.0314,-0.0754,-0.141
TTATGCG,-0.00058,-0.153,-0.273,1.04,-0.0541,0.36,0.0845,-0.0838,-0.214,-0.0921
CTTACTT,0.0175,-0.0581,-0.215,-2.54,-0.0397,-0.502,-0.549,-0.163,-0.0758,-0.034
GAAATAC,-0.00142,-0.0965,0.149,0.266,-0.0177,0.468,-0.0115,-0.0314,-0.0224,-0.0469
GTGGGTA,0.0385,-0.0303,0.292,1.05,-0.0845,1.76,0.0373,0.102,-0.0573,-0.091
